Paper PMC3525516
These are yes or no findings as the source states them, for the method shown. In cells and extracts the contact can be indirect. Some results given as binding are weak or reduced against the parent protein; the word gives no strength. For part of these data: Tags and fused reporters may be left off the sequences shown.

By UniProt entry, the sequences of proteins in these tests, tags left out.
UniProt P02340: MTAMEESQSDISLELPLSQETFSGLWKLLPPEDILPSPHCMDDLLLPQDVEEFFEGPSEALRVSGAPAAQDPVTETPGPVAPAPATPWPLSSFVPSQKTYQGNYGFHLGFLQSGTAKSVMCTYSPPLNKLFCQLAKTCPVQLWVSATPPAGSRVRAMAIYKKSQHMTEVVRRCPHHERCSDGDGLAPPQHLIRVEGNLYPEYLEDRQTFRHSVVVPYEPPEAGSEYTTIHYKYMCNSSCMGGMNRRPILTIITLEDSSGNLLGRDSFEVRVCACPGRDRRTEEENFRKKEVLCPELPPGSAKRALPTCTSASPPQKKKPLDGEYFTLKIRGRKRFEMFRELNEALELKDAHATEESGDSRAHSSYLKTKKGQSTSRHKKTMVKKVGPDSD
UniProt Q61696: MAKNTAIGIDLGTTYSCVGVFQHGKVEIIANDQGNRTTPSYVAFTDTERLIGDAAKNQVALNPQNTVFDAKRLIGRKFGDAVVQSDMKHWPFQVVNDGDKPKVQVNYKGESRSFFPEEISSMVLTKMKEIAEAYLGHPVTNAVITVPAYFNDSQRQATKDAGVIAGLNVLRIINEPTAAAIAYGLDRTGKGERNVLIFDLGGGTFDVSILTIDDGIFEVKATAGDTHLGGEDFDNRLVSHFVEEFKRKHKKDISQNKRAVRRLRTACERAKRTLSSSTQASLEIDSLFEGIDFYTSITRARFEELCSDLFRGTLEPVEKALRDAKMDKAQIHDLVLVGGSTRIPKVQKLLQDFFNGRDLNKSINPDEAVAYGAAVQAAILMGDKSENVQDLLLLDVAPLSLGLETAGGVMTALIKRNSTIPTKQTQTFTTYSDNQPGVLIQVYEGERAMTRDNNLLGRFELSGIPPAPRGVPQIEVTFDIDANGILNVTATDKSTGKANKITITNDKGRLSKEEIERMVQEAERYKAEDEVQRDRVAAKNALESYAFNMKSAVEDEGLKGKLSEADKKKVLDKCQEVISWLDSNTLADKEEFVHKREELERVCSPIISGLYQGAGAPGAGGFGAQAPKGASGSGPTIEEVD
UniProt Q00613: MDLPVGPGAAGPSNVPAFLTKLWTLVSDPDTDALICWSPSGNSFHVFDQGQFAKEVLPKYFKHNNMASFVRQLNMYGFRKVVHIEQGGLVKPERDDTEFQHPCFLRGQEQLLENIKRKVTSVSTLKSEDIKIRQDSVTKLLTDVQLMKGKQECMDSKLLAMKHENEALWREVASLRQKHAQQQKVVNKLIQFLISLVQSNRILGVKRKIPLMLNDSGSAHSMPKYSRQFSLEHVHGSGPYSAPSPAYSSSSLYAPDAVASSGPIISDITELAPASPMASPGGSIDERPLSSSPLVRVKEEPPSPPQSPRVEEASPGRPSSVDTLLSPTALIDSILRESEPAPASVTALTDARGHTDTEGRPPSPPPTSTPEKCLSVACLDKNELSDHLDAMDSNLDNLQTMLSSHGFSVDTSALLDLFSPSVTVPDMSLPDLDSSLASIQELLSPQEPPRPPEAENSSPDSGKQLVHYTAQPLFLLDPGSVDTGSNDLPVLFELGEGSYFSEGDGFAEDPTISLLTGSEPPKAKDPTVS
UniProt P11142: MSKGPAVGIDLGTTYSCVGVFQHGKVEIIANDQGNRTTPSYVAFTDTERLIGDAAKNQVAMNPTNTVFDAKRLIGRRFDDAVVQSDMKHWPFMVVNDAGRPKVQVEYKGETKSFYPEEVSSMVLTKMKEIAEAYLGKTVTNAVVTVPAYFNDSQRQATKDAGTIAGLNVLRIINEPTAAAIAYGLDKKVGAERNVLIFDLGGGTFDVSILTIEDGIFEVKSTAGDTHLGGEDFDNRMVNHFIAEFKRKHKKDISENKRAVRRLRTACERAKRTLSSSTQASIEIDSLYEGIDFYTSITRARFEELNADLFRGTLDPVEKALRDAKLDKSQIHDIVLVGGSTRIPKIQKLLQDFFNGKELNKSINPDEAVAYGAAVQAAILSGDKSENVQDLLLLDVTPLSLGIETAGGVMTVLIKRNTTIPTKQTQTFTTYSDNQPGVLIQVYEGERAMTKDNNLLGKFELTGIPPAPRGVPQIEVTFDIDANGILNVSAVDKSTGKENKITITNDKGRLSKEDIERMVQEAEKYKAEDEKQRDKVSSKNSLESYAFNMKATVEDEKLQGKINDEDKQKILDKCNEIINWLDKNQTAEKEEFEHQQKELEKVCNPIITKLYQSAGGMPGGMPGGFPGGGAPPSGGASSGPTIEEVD
UniProt P42859: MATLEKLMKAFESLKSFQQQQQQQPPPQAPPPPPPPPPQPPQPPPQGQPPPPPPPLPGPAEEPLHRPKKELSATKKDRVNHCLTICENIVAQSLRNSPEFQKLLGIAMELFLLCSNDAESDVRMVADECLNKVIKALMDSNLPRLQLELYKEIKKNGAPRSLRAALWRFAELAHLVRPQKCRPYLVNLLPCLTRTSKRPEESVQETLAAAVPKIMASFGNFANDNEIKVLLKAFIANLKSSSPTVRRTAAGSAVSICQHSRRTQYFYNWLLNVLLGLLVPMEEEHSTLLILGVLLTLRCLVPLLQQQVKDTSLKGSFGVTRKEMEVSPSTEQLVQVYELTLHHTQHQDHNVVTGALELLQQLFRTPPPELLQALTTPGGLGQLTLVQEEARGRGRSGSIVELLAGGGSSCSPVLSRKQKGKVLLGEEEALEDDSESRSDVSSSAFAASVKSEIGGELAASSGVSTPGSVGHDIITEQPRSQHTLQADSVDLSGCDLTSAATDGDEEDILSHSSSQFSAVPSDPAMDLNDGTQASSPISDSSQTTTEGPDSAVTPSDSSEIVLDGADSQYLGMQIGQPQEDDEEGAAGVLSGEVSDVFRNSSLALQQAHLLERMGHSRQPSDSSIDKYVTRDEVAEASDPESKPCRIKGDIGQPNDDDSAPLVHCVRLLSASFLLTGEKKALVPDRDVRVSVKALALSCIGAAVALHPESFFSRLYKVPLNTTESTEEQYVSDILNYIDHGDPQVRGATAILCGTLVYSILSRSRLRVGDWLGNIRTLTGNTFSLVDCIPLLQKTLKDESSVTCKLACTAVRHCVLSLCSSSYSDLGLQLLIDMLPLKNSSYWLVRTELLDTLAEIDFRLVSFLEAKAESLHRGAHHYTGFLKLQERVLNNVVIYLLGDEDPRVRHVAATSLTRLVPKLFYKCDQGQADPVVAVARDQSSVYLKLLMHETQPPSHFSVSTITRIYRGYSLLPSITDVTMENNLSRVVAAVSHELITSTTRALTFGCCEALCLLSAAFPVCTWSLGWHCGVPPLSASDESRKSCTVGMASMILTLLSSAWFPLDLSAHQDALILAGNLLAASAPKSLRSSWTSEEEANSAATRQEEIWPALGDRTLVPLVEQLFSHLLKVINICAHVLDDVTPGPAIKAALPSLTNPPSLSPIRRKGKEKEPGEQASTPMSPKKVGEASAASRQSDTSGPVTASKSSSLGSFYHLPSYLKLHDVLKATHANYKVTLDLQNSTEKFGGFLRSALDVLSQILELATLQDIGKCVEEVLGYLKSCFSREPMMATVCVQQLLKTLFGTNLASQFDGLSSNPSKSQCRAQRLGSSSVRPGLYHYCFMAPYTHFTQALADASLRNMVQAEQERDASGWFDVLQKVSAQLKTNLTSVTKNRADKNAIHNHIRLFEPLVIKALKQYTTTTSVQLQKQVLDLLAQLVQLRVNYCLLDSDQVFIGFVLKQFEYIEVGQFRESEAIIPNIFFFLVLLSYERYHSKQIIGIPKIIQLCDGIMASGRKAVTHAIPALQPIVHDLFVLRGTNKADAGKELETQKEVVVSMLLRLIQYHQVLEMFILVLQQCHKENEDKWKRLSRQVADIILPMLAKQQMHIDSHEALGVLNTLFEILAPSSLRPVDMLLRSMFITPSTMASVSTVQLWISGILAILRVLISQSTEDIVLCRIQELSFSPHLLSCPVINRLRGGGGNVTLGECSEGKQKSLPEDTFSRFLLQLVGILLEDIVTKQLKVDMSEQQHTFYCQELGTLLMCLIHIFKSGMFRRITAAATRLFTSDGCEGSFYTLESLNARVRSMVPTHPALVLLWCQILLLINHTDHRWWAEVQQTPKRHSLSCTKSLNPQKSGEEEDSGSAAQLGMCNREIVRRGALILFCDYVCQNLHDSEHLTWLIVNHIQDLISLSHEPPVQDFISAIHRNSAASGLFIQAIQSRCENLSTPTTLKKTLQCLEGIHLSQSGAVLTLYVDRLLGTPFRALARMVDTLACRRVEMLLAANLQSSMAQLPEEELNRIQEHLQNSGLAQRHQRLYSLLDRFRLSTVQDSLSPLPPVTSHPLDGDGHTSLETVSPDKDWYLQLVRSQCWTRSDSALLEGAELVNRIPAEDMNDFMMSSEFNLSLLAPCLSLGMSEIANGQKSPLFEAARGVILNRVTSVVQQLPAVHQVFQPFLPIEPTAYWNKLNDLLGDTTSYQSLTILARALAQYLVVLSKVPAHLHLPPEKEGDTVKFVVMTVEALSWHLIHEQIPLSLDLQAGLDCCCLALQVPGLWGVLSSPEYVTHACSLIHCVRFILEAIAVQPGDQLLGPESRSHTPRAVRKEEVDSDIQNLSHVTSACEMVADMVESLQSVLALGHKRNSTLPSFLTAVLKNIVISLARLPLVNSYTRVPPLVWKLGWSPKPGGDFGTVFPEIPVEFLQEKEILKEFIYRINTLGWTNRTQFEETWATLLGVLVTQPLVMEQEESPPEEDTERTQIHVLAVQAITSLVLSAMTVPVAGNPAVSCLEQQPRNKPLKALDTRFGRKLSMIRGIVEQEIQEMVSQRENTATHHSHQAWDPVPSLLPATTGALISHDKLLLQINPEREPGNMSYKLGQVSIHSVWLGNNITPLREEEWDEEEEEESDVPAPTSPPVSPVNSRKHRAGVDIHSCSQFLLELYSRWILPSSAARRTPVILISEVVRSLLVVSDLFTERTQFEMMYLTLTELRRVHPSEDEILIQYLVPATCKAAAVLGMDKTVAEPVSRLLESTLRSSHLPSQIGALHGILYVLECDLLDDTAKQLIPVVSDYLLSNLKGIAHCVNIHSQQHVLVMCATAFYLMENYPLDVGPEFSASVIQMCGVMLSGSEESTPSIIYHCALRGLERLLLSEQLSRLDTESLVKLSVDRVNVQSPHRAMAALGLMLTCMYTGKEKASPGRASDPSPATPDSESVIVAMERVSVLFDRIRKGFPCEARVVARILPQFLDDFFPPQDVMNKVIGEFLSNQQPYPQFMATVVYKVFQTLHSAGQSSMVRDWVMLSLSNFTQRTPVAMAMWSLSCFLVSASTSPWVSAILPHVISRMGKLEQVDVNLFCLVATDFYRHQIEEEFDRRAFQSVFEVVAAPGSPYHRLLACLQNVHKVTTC
UniProt Q8WWF6: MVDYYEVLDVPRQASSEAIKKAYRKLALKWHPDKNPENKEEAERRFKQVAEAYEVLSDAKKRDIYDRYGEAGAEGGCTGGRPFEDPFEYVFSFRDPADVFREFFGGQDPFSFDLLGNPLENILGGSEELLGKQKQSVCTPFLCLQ
UniProt P08670: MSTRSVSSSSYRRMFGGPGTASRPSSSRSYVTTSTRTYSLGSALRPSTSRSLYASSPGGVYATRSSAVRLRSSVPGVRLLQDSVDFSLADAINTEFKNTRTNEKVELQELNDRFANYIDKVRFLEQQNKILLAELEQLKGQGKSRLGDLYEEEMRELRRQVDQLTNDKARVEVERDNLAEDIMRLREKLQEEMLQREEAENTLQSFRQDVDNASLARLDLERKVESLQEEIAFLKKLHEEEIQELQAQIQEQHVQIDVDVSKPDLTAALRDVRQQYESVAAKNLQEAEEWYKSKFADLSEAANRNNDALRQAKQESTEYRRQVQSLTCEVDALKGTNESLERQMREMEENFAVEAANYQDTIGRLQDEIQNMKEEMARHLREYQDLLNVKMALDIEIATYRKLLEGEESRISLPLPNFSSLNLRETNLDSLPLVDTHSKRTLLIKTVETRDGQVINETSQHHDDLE
UniProt Q04207: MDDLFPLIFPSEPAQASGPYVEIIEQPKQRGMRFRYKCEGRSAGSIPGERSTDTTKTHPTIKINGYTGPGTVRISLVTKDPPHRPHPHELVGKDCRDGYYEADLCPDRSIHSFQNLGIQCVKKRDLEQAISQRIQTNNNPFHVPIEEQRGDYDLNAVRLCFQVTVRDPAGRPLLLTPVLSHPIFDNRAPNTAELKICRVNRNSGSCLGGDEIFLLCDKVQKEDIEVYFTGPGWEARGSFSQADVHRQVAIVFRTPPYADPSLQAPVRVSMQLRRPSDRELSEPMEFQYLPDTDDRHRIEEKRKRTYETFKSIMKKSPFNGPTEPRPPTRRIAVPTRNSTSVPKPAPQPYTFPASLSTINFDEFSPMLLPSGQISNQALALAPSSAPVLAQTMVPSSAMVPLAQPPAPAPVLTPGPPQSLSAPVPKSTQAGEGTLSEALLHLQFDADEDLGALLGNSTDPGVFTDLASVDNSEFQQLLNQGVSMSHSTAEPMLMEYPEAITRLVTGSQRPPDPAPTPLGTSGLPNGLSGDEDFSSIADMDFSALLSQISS

Assays:
[1] = molecular target: T1, Huntingtin Yeast Two-Hybrid Protein K, endogenous HYPK of mouse neuronal cells (mouse (endogenous in Neuro2A and STHdh cells)) (UniProt Q9CR41); test: co-IP; anti-HYPK immunoprecipitate elute from Neuro2A, STHdhQ7/HdhQ7 or STHdhQ111/HdhQ111 cell extract run on native PAGE and blotted; partners detected in the high molecular weight complex
T1 sequence: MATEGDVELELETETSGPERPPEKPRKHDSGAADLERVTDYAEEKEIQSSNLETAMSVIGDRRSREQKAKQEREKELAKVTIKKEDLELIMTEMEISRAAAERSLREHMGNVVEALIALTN

[2] = molecular target: T1, Huntingtin Yeast Two-Hybrid Protein K, endogenous HYPK of mouse neuronal cells (mouse (endogenous in Neuro2A and STHdh cells)); test: co-IP; anti-HYPK antibody precipitates endogenous HYPK from soluble cell lysate (Neuro2A where named), partners endogenous or overexpressed with DsRed or GFP; eluted with 100 mM glycine pH 3.0; SDS-PAGE western blot; for TP53 also with the antibodies swapped
[3] = molecular target: Tumor protein p53, endogenous (mouse (endogenous in STHdhQ7/HdhQ7)) (UniProt P02340); test: as above

In the case of “Heat shock 70kDa protein 1A, endogenous in Neuro2A (from UniProt Q61696 1-641)”, the binding [1] is reported as “binds” and the binding [2] is reported as “binds”.

With HSF1-GFP (from UniProt Q00613 1-529) the binding [2] was “binds”.

With HSPA8-DsRed (from UniProt P11142 1-646) the binding [2] was “binds”.

With “Tumor protein p53, endogenous (from UniProt P02340 1-390)” the binding [1] was “binds” and the binding [2] was “binds”.

With “Huntingtin, full-length with 7 glutamine residues (STHdhQ7/HdhQ7) (from UniProt P42859 1-3119)” the binding [1] was “binds”.

In the case of DNAJB3-GFP (from UniProt Q8WWF6 1-145), the binding [2] is reported as “binds”.

With VIM-DsRed (from UniProt P08670 1-466) the binding [2] was “binds”.

For “v-rel reticuloendotheliosis viral oncogene homolog A (avian), endogenous (from UniProt Q04207 1-549)”, the binding [1] was “binds” and the binding [2] was “binds”.

B1: LMNB2-DsRed (protein, UniProt Q03252 1-620)
chain: MSPPSPGRRREQRRPRAAATMATPLPGRAGGPATPLSPTRLSRLQEKEELRELNDRLAHYIDRVRALELENDRLLLKISEKEEVTTREVSGIKALYESELADARRVLDETARERARLQIEIGKLRAELDEVNKSAKKREGELTVAQGRVKDLESLFHRSEVELAAALSDKRGLESDVAELRAQLAKAEDGHAVAKKQLEKETLMRVDLENRCQSLQEELDFRKSVFEEEVRETRRRHERRLVEVDSSRQQEYDFKMAQALEELRSQHDEQVRLYKLELEQTYQAKLDSAKLSSDQNDKAASAAREELKEARMRLESLSYQLSGLQKQASAAEDRIRELEEAMAGERDKFRKMLDAKEQEMTEMRDVMQQQLAEYQELLDVKLALDMEINAYRKLLEGEEERLKLSPSPSSRVTVSRATSSSSGSLSATGRLGRSKRKRLEVEEPLGSGPSVLGTGTGGSGGFHLAQQASASGSVSIEEIDLEGKFVQLKNNSDKDQSLGNWRIKRQVLEGEEIAYKFTPKYILRAGQMVTVWAAGAGVAHSPPSTLVWKGQSSWGTGESFRTVLVNADGEEVAMRTVKKSSVMRENENGEEEEEEAEFGEEDLFHQQGDPRTTSRGCYVM
For B1, the binding [2] was “binds”.

B2: MLF2-GFP (protein, UniProt Q15773 1-248)
chain: MFRFMRDVEPEDPMFLMDPFAIHRQHMSRMLSGGFGYSPFLSITDGNMPGTRPASRRMQQAGAVSPFGMLGMSGGFMDMFGMMNDMIGNMEHMTAGGNCQTFSSSTVISYSNTGDGAPKVYQETSEMRSAPGGIRETRRTVRDSDSGLEQMSIGHHIRDRAHILQRSRNHRTGDQEERQDYINLDESEAAAFDDEWRRETSRFRQQRPLEFRRLESSGAGGRRAEGPPRLAIQGPEDSPSRQSRRYDW
With B2 the binding [2] was “binds”.

B3: MLF1-GFP (protein, UniProt P58340 1-268)
chain: MFRMLNSSFEDDPFFSESILAHRENMRQMIRSFSEPFGRDLLSISDGRGRAHNRRGHNDGEDSLTHTDVSSFQTMDQMVSNMRNYMQKLERNFGQLSVDPNGHSFCSSSVMTYSKIGDEPPKVFQASTQTRRAPGGIKETRKAMRDSDSGLEKMAIGHHIHDRAHVIKKSKNKKTGDEEVNQEFINMNESDAHAFDEEWQSEVLKYKPGRHNLGNTRMRSVGHENPGSRELKRREKPQQSPAIEHGRRSNVLGDKLHIKGSSVKSNKK
For B3, the binding [2] was “binds”.

B4: Huntingtin Yeast Two-Hybrid Protein K, endogenous HYPK of mouse neuronal cells (protein, UniProt Q9CR41 1-121)
chain: T1 sequence
For B4, the binding [3] was “binds”.

B5: Lamin B2, endogenous in STHdh cells (protein, UniProt P21619 1-596)
chain: MASLPPHAGPATPLSPTRLSRLQEKEELRELNDRLAHYIDRVRALELENDRLLLRISEKEEVTTREVSGIKTLYESELADARRVLDETARERARLQIEIGKVQAELEEARKSAKKREGELTVAQGRVKDLESLFHRSEAELATALSDKQGLETEVAELRAQLAKAEDGHAVAKKQLEKETLMRVDLENRCQSLQEELAFSKSVFEEEVRETRRRHERRLVEVDSSRQQEYDFKMAQALEDLRSQHDEQVRLYRVELEQTYQAKLDNAKLLSDQNDKAAHAAREELKEARMRVESLSYQLLGLQKQASAAENHIHELEEALAGERDKFRKMLDAKEQEMTEVRDAMQQQLAEYQELLDIKLALDMEISAYRKLLEGEEERLKLSPSPSSRITISRATSSSSSSSGVGMSVGQGRGKRRRLETEDTSGSPSRASRVSSGSRLAQQTVATGVVNIDEVDPEGRFVRLKNSSDKDQSLGNWRIKRQVLEGEDIAYKFTPKYVLRAGQTVTVWAAGAGATHSPPSTLVWKSQTNWGPGESFRTALVSADGEEVAVKAAKHSSVQGRENGEEEEEEEAEFGEEDLFHQQGDPRTTSRGCRLM
For B5, the binding [1] was “binds”.

B6: HIP1, endogenous in Neuro2A (protein, UniProt Q8VD75 1-1029)
chain: MDRMASSMKQVSNPLPKVLSRRGVGAGMEAAERESFERTQTVSVNKAINTQEVAVKEKHARTCILGTHHEKGAQTFWSVVNRLPLSSNAMLCWKFCHVFHKLLRDGHPNVLKDSLRYKNELSDMSRMWGHLSEGYGQLCSIYLKLLRTRMEYHTKNPRFPGNLQMSDRQLDEAGESDVNNFFQLTVEMFDYLECELNLFQTVFNSLDMSRSVSVTTAGQCRLAPLIQVILDCSHLYDYTVKLLFKLHSCLPADTLQGHRDRFMEQFTKLKDLFQRSSNLQYFKRLIQIPQLPENPPNFLRASALSEHISPVVVIPAEVSSPDSEPVLEKDDLMDMDASQQTLFDNKFDDVFGSSLSSDPFNFNNQNGVNKDEKDHLIERLYREISGLTGQLDNMKIESQRAMLQLKGRVSELEAELAEQQHLGRQAMDDCEFLRTELDELKRQREDTEKAQRSLTEIERKAQANEQRYSKLKEKYSELVQNHADLLRKNAEVTKQVSVARQAQVDLEREKKELADSFARTQEQQDVLENLKHELATSRQELQVLHSNLETSAQSEAKWLTQIAELEKEQGSLATVAAQREEELSALRDQLESTQIKLAGAQESMCQQVKDQRKTLLAGIRKAAEREIQEALSQLEEPTLISCAGSTDHLLSKVSSVSSCLEQLEKNGSQYLACPEDISELLHSITLLAHLTGDTIIQGSATSLRAPPEPADSLTEACRQYGRETLAYLSSLEEEGTMENADVTALRNCLSRVKTLGEELLPRGLDIKQEELGDLVDKEMAATSAAIEAATTRIEEILSKSRAGDTGVKLEVNERILGSCTSLMQAIKVLVVASKDLQKEIVESGRGTASPKEFYAKNSRWTEGLISASKAVGWGATIMVDAADLVVQGKGKFEELMVCSREIAASTAQLVAASKVKANKGSLNLTQLQQASRGVNQATAAVVASTISGKSQIEETDSMDFSSMTLTQIKRQEMDSQVRVLELENDLQKERQKLGELRKKHYELAGVAEGWEEGTEASPSTVQEAIPDKE
In the case of B6, the binding [2] is reported as “no binding”.

B7: HIP1-DsRed (protein, UniProt O00291 1-1037)
chain: MDRMASSMKQVPNPLPKVLSRRGVGAGLEAAERESFERTQTVSINKAINTQEVAVKEKHARTCILGTHHEKGAQTFWSVVNRLPLSSNAVLCWKFCHVFHKLLRDGHPNVLKDSLRYRNELSDMSRMWGHLSEGYGQLCSIYLKLLRTKMEYHTKNPRFPGNLQMSDRQLDEAGESDVNNFFQLTVEMFDYLECELNLFQTVFNSLDMSRSVSVTAAGQCRLAPLIQVILDCSHLYDYTVKLLFKLHSCLPADTLQGHRDRFMEQFTKLKDLFYRSSNLQYFKRLIQIPQLPENPPNFLRASALSEHISPVVVIPAEASSPDSEPVLEKDDLMDMDASQQNLFDNKFDDIFGSSFSSDPFNFNSQNGVNKDEKDHLIERLYREISGLKAQLENMKTESQRVVLQLKGHVSELEADLAEQQHLRQQAADDCEFLRAELDELRRQREDTEKAQRSLSEIERKAQANEQRYSKLKEKYSELVQNHADLLRKNAEVTKQVSMARQAQVDLEREKKELEDSLERISDQGQRKTQEQLEVLESLKQELATSQRELQVLQGSLETSAQSEANWAAEFAELEKERDSLVSGAAHREEELSALRKELQDTQLKLASTEESMCQLAKDQRKMLLVGSRKAAEQVIQDALNQLEEPPLISCAGSADHLLSTVTSISSCIEQLEKSWSQYLACPEDISGLLHSITLLAHLTSDAIAHGATTCLRAPPEPADSLTEACKQYGRETLAYLASLEEEGSLENADSTAMRNCLSKIKAIGEELLPRGLDIKQEELGDLVDKEMAATSAAIETATARIEEMLSKSRAGDTGVKLEVNERILGCCTSLMQAIQVLIVASKDLQREIVESGRGTASPKEFYAKNSRWTEGLISASKAVGWGATVMVDAADLVVQGRGKFEELMVCSHEIAASTAQLVAASKVKADKDSPNLAQLQQASRGVNQATAGVVASTISGKSQIEETDNMDFSSMTLTQIKRQEMDSQVRVLELENELQKERQKLGELRKKHYELAGVAEGWEEGTEASPPTLQEVVTEKE
B7 was tested, and the binding [2] was “no binding”.
